In all, about 45,000 compounds went through this assay and about 200 (0.44%) were called active. About 7% were inconclusive and are not listed. The call rests on the fitted dose curve; in most records, active means well fitted activation curve with a large enough effect; inconclusive means small, poorly fitted or top-dose-only effect; inactive means no such curve, though single readings can be large or run the other way. Some of the results follow.
Assay: qHTS of TDP-43 Inhibitors: NCGC Sytravon Library Screen; further: 0% is about no effect; nearly all actives have a fitted effect of over 55% in size
Settings: yeast TDP-43 toxicity rescue, BacTiter-Glo growth, 24 h; series mostly up to 46.1 µM; growth rescue (activation): at the top concentration
How it was run: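 TDP-43-expressing yeast, pregrown in raffinose, seeded at OD600 0.02 in galactose medium with compound for 24 hr at 30 deg C. Growth read by BacTiter-Glo luminescence, so rescue of toxicity appears as activation.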

| SMILES | growth rescue (activation) |
| --- | --- |
| COc1ccccc1C(=O)NCC(=O)Nc1ccc2c(c1)OCO2 | inactive: 20.1% |
| O=C(NCCCCNC(=O)C(F)(F)F)C(F)(F)F | inactive: -1.49% |
| O=C(CNc1ccc(Br)cc1)c1ccc(Br)s1 | inactive: 29.7% |
| CC(=O)c1c(C)nc(-c2ccc3c(c2)OCO3)n1O | inactive: 16.2% |
| CCOc1nc(NC(=O)NS(=O)(=O)Oc2cccc(Cl)c2)nc(-c2ccccc2)n1 | inactive: -2.33% |
| O=C(Oc1ccc2c(c1)O/C(=C\c1ccncc1)C2=O)c1cccs1 | inactive: -7.8% |
| COC(=O)C1=CNC=C(C(=O)OC)C1c1cccc2ccccc12 | inactive: 3.25% |
| CCc1ccc(S(=O)(=O)/N=C2/C=C(Sc3ncn[nH]3)C(=O)c3ccccc32)cc1 | inactive: -92.5% |
| Cc1ccc(C)c(NC(=O)COC(=O)CCCN=C2NS(=O)(=O)c3ccccc32)c1 | inactive: 1.97% |
| Cc1cccc(NC(=O)Cn2c(=O)oc3ccccc32)c1C | inactive: 3.2% |
| O=Cc1cn(CCC(=O)O)nc1-c1cccc2ccccc12 | inactive: 23% |
| COc1ccccc1N1CCN(C(=O)c2ccc(N(C)S(=O)(=O)c3ccccc3)cc2)CC1 | inactive: 16.9% |
| CC(=O)Oc1ccc(/C=N/NS(=O)(=O)c2ccccc2)cc1 | inactive: 33.7% |
| COc1ccc(N2CC(C(=O)Nc3ccc(S(=O)(=O)N4CCOCC4)cc3)CC2=O)cc1 (centres undefined) | inactive: 8.19% |
| NC(=O)NC(=O)COC(=O)c1ccc(Cl)c(S(=O)(=O)N(Cc2ccccc2)c2ccc(Cl)cc2)c1 | inactive: 17.8% |
| COc1ccc(C2=NC3(CCCCCC3)N(CC(=O)Nc3cccc(Cl)c3)C2=O)cc1 | inactive: 1.94% |
| COc1ccc(CNC(=O)C23CC4CC(CC(Br)(C4)C2)C3)cc1 | inactive: 5.43% |
| CCCC(c1nnnn1Cc1ccc(F)cc1)N1CCN(C)CC1 (centres undefined) | inactive: 11.2% |
| Cc1cccc(NC(=O)/C(=C\c2ccc([N+](=O)[O-])o2)NC(=O)c2ccc(Cl)cc2)c1 | inactive: 16.7% |
| Cc1onc(-c2c(F)cccc2Cl)c1C(=O)OCC(=O)c1c[nH]c2ccccc12 | inactive: 6.83% |
| Cc1ccnc(SCc2ccc([N+](=O)[O-])cc2)n1 | inactive: 38.8% |
| CCn1ncc(-c2ccnc3cc(C(=O)O)nn23)c1C | inactive: 11.5% |
| O=C(C1CCN(S(=O)(=O)c2c(Cl)cccc2Cl)CC1)N1CCCC1 | inactive: 0.368% |
| COc1cccc(CCC(=O)O)c1OC | inactive: 15.2% |
| Cc1cc(NC(=O)C23CC4CC(CC(C4)C2)C3)n[nH]1 | inactive: 17.8% |
| Cc1ccc(S(=O)(=O)N2CCN(CC(=O)Nc3ccccc3C(=O)NC3CC3)CC2)cc1 | inactive: 21.5% |
| CN(C)CCNC(=O)c1cccc(-c2cccc3nccn23)c1 | inactive: 3.36% |

| SMILES | growth rescue (activation) |
| --- | --- |
| N#Cc1ccc(/C=C2\CCCCn3c2nc2cc(C(=O)O)ccc2c3=O)cc1 | inactive: -3.96% |
| CN(C)S(=O)(=O)c1ccc(NC(=O)CN2CCN(c3ccccn3)CC2)cc1 | inactive: -1.86% |
| CCn1c(SCC(=O)Nc2nc(C)cs2)nnc1-c1ccncc1 | inactive: 16.7% |
| CC(=O)Nc1ccccc1OCC(=O)NCCC1=CCCCC1 | inactive: 1.97% |
| CNC(=S)Nc1cccc(C(=O)O)c1 | inactive: -2.77% |
| Cc1ccc(-c2c3c(=O)n(C)c(=O)n(C)c3cn2-n2cnnc2)cc1 | inactive: -0.44% |
| O=c1c2c(nc3cc(-c4ccc(Cl)cc4)[nH]n13)CCS2 | inactive: 6.35% |
| CCn1c(SCc2ccccc2)nnc1C1CCCCC1 | inactive: 34% |
| CCOC(=O)c1c(/N=C/N(C)C)sc(/C=N/Nc2ccccc2)c1-c1ccccc1Cl | inactive: 5.28% |
| CCOC(=O)C(NC(=O)c1ccccc1F)(Nc1cc(C)on1)C(F)(F)F (centres undefined) | inactive: 7.58% |
| Cc1ccc(C2=NN(CC(=O)NCc3ccco3)C(=O)CC2)cc1 | inactive: 23.5% |
| CC(C)CNC(=S)N1CCC(NC(=O)c2ccco2)CC1 | inactive: 10.5% |
| COc1ccccc1NC(=O)Cc1nnc(SCC(=O)NC2=NCCS2)n1C | inactive: -14.7% |
| COC(=O)c1ccc(CN(c2ccccc2Cl)S(C)(=O)=O)cc1 | inactive: 29.1% |
| CN(C)S(=O)(=O)c1ccc(NC(=O)Cn2nc(-c3ccc4c(c3)OCCO4)ccc2=O)cc1 | inactive: 8.76% |
| Cc1cc(C)cc(OCCNC(=O)C2CCN(S(=O)(=O)c3ccccc3)CC2)c1 | inactive: 7.51% |
| COc1cc(NC(=O)C2(C)CCCN2C(=O)C(C)C)cc(OC)c1OC (centres undefined) | inactive: 5.38% |
| COc1ccc(C(=O)NNC(=O)CSc2nnc(C(C)C)n2C)cc1 | inactive: -5.87% |
| COc1ccc2c(CC#N)c[nH]c2c1 | inactive: 17.6% |
| CCC1CCCCN1C(=O)c1cc2c(=O)n3cccc(C)c3nc2s1 (centres undefined) | inactive: -1.46% |
| O=C(NS(=O)(=O)Oc1ccc(Cl)cc1)OC[C@@H]1CCCN2CCCC[C@H]12 | inactive: 23.5% |
| Cc1ccccc1C(=O)Nc1ccccc1N1CCCCC1 | inactive: 23.3% |
| COc1cc(C2C(C#N)=C(C)NC3=C2C(=O)CC(C)(C)C3)ccc1OCCO (centres undefined) | inactive: 14.6% |
| CC1=NNC(=O)C1CCC(=O)N/N=C/c1ccco1 (centres undefined) | inactive: -6.85% |
| CCOc1ccc(C2/C(=C(\O)c3cccc(OC)c3)C(=O)C(=O)N2c2cc(C)on2)cc1OC (centres undefined) | inactive: 15.6% |
| COCCn1cnc2c1c(=O)n(CC(=O)c1ccc3c(c1)OCCO3)c(=O)n2Cc1ccccc1 | inactive: 7.38% |
| CN(C)C(=S)NC(=O)C(c1ccccc1)c1ccccc1 | inactive: 1.79% |
